Assay results as given in PubChem BioAssay (NCI).
Several values for one entry are separate records, joined by “and”; a condition that tells them apart may be missing. Identical values can stand only once.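 In this assay, cells in 96-well plates receive the compound at five concentrations for 48 hours. Endpoints are linearly interpolated between the surrounding concentrations. Here, GI50 denotes the concentration required for 50% inhibition of growth. At the TGI there is no net growth.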

These molecules were tested on NCI-H322M lung (assay: DTP human tumour cell line panel, 48 h).

| Structure (SMILES) | TGI | GI50 |
| --- | --- | --- |
| C#CCOCn1cnc2ncnc(Cl)c21 | > 100 µM |  |
| CC1=CC(=O)c2cccc(NC3=NCCO3)c21 | > 100 µM |  |
| CC(/C=N/NC1=NCCCCN1)=N\NC1=NCCCCN1 | > 100 µM |  |
| Cn1cc2ccccc2c1-c1nc(F)nc(Oc2ccc3c(c2)CC[C@@H]2C3CC[C@]3(C)C(O)CCC23)n1 (some centres not stated) | 71.9 µM |  |
| CC(=O)c1ccc(NC(=O)/C(=N\NC(N)=O)C(C#N)CC(C)(C)C=O)cc1 (configuration not stated) | > 100 µM |  |
| Cc1ccc(S(=O)(=O)n2cc(-c3cnc(N)c(Br)n3)c3ccccc32)cc1 | > 100 µM |  |
| COc1ccc(OC)c(CNc2ccc(O)c(C(=O)NCCc3ccc(F)cc3)c2)c1 | 73.3 µM |  |
| O=C(c1ccc(Cl)cc1)N(C(=S)N1CCN(c2ccccn2)CC1)c1ccccc1 | > 100 µM |  |
| COc1cc(C2c3cc4c(cc3C3OC(=O)C2C3CO)OCO4)cc(OC)c1OC (configuration not stated) | > 100 µM | 0.0562 µM |
| C1OCN2c3nonc3N3COCN4c5nonc5N1C2C43 (configuration not stated) | > 100 µM |  |
| O=c1c2c([nH]c3cc4c(cc13)OCO4)-c1ccccc1CCC2 | > 50 µM |  |
| Cc1ccccc1NC(=S)N=Nc1c(O)[nH]c2ccccc12 | > 100 µM |  |
| O=c1[nH]c(=O)n(C2CC(O)C(CO)O2)cc1NN=NCc1ccccc1 (configuration not stated) | > 100 µM |  |
| Cn1c2ccccc2c2cc(-c3ccccc3)c3c(c21)C(=O)C=CC3=O | 53.9 µM |  |
| N#Cc1cc2cc3c4c(c2oc1=O)CCCN4CCC3 | > 100 µM |  |
| NNC(=O)CC(=O)Nc1ccccc1F | > 100 µM |  |
| CCOC(=O)Nc1nc2c(F)c(F)c(F)cc2s1 | > 100 µM | > 100 µM |
| O=C1C=CC2(O[C@@H](Cc3ccccc3)[C@H](Cc3ccccc3)O2)C(SC(=O)c2ccccc2)C1 (some centres not stated) | 23.8 µM |  |
| O=C(CCc1cc(O)cc(O)c1)NCCc1ccc(O)c(O)c1 | > 100 µM |  |
| CCN(CC)C(=O)c1c(N2CCOCC2)cc(N(CC)CC)oc1=O | > 100 µM |  |
| CN(C)c1nc(N(C)C)nc(N(C)CN(C)c2nc(N(C)C)nc(N(C)C)n2)n1 | > 100 µM |  |
| Cc1nc2ccccc2c(=O)n1NC(=O)Cc1ccccc1 | > 100 µM |  |
| Cc1cc2nc3n(c2cc1C)C(c1c(F)cccc1F)SC3 (configuration not stated) | 57.4 µM |  |
| O=C1C2C(C(=O)[N]1[Hg][c]1ccccc1)C1(Cl)C(Cl)=C(Cl)C2(Cl)C1(Cl)Cl (configuration not stated) | 25.9 µM | 11.1 µM |

| Structure (SMILES) | TGI | GI50 |
| --- | --- | --- |
| Cc1ccnc(NC(=S)Nc2ccccc2Cl)c1 | > 100 µM |  |
| CC[C@](O)(C(=O)O)c1cc2n(c(=O)c1CO)Cc1cc3ccccc3nc1-2 | 18.8 µM and 15.5 µM | 0.13 µM and 0.0743 µM |
| COc1cc2ccc(CC#N)cc2cc1OC | > 100 µM |  |
| Clc1ccccc1-c1nc2ccccc2[nH]1 | > 100 µM | > 100 µM |
| Cc1cc(C)cc(Nc2nccc(-c3c(-c4ccc(F)cc4)ncn3C3CCNCC3)n2)c1 | 3.67 µM | 1.28 µM |
| O=C1C[C@@H](c2ccccc2)NCCCCN(O)CCCN1 | > 100 µM |  |
| C[C@]12CCC(=O)C=C1CC[C@@H]1[C@@H]2C(=O)C[C@@]2(C)[C@H]1CC[C@]2(O)C(=O)CO | > 100 µM |  |
| O=C(NCCO)c1c(O)c2ccccc2[nH]c1=O | > 100 µM |  |
| O=S(=O)(NC(=S)Nc1ccccc1)c1ccc(N2N=C3c4ccccc4CC3C2c2ccc(Cl)cc2)cc1 (configuration not stated) | 50.7 µM | 16.3 µM |
| COC(=O)C[C@H](COCc1ccccc1)NC(=O)C[C@H](COCc1ccccc1)NC(=O)C[C@H](COCc1ccccc1)NC(=O)OC(C)(C)C | > 100 µM |  |
| CC1NOC(NS(=O)(=O)c2ccc(N=Nc3c(O)c(C(=O)O)cc4ccccc34)cc2)C1C (configuration not stated) | > 100 µM |  |
| Nc1c(C(=O)Nc2cccc3ccccc23)sc2nc3c(cc12)CCCC3 | > 100 µM | > 100 µM |
| CC(=O)NC1C(OCc2ccccc2)OC(CO)C(O)C1OCC(=O)NC(C)C(=O)NC(CCC(=O)NCCCCCC(=O)Nc1ccc2c(c1)CN1C(=O)c3ccccc3C1=N2)C(N)=O (configuration not stated) | > 100 µM |  |
| COC(=O)C1=C(OC(=O)/C(=C/c2ccc(Cl)cc2)c2ccccc2)C(C(=O)OC)[C@@]2(O)[C@@H](C(=O)OC)[C@H](C)C[C@@H]1[C@@H]2C(=O)OC (some centres not stated) | > 100 µM |  |
| Cc1cc[c-]cc1.Fc1c[c-]c(-c2ccccn2)c(F)c1.N#CCC[PH+](CCC#N)c1ccccc1.[Pt+2] | > 100 µM | 5.24 µM |
| Oc1c(I)cc(I)cc1CNCCCN(Cc1ccccn1)Cc1ccccn1 | 1.86 µM | 0.881 µM |
| c1ccc([C@H]2CN3CCSC3=N2)cc1 | > 100 µM |  |
| N=C1N=C(N)c2cc3c(cc21)SCCSCCCSCCS3 | > 67.9 µM |  |
| Cn1cc(-c2csc(-c3cn(CCN4CCOCC4)c4ccc(F)cc34)n2)c2cccnc21 | 15.4 µM | 3.16 µM |
| COc1cc2c(cc1OCCCCCCNC(=O)c1cc3ccccc3[nH]1)N=CC1CCCN1C2=O (configuration not stated) | > 100 µM | 25.3 µM |
| CC1=C[C@H]2c3c(c(O)c(O)c4oc5cc(O)cc(O)c5c(=O)c34)[C@H](c3cc(O)c(O)c4oc5cc(O)cc(O)c5c(=O)c34)[C@H]2C(C)(C)C1 | 5.16 µM and 9.87 µM | 1.92 µM and 2.28 µM |
| COc1ccc(/C=C/c2nc(N3CCOCC3)c3cc(F)c(F)cc3n2)cc1OC | > 100 µM | 60.1 µM |
| CC(C)O/C=C1\C(=O)C2(SCCS2)[C@H]2CCCC[C@@H]12 | > 100 µM |  |
| Cc1cc(S(=O)(=O)O)ccc1N=Nc1ccc(N=Nc2c(O)ccc3ccccc23)c(C)c1 | > 100 µM |  |
